The source of these data is patent US20210355180A1 (published 2021).

Test [1] concerns the target T1, N-terminally biotinylated human Aβ1-40 peptide (human, N-terminal biotin).
T1 construct: AnaSpec; immobilised on Neutravidin or streptavidin chips, or added in ELISA; also called hAβ1-40; biotinylated hAβ1-40
Put plainly: SPR (Biacore 2000), peptide on SA chip.

Test [2] deals with T2, N-terminally biotinylated human Aβ1-42 peptide (human, N-terminal biotin).
T2 construct: AnaSpec AS-24641-01; also called hAβ1-42
Put plainly: SPR (Biacore 2000), peptide on SA chip.

B1: ABPP095a with C-terminal His6 tag (designed binder)
chain: AGGERVYLPNLNADQLCAFIRSLEDDPSQSANLLAEAKKLSEAQAPASSSSGSSSSGRASAGGERVYLPNLNADQLCAFIRSLEDDPSQSANLLAEAKKLSEAQAPKLEHHHHHH
notes: scaffold mutated variant of ABPP095
Consider B1, for which the koff stood at 0.0003 s⁻¹ in test [1] and 0.00062 s⁻¹ in test [2]. Moreover, the on-rate (kon) was 74000 M⁻¹ s⁻¹ in test [1] and 120000 M⁻¹ s⁻¹ in test [2].

B2: ABPP095b with C-terminal His6 tag (designed binder)
chain: AGGERVYLPNLNADQLCAFIRSLEDDPSQSSELLSEAKKLSESQAPASSSSGSSSSGRASAGGERVYLPNLNADQLCAFIRSLEDDPSQSSELLSEAKKLSESQAPKLEHHHHHH
notes: as for B1
For B2, the koff was 0.00068 s⁻¹ in test [1] and 0.0015 s⁻¹ in test [2]. Also, the kon in test [1] was 50000 M⁻¹ s⁻¹; in test [2] it was 100000 M⁻¹ s⁻¹.

B3: ABPP095c with C-terminal His6 tag (designed binder)
chain: AGGERVYLPNLTADQLCAFIRKLEDDPSQSSELLSEAKKLSESQAPASSSSGSSSSGRASAGGERVYLPNLTADQLCAFIRKLEDDPSQSSELLSEAKKLSESQAPKLEHHHHHH
notes: as for B1
In test [1], B3 returned an off-rate constant (koff) of 0.00019 s⁻¹ and an association rate constant (kon) of 81000 M⁻¹ s⁻¹. In test [2], this molecule yielded a koff of 0.00036 s⁻¹ and a kon of 140000 M⁻¹ s⁻¹.
